Reference: PubChem BioAssay AID1030 (National Center for Advancing Translational Sciences (NCATS), 2008)
Out of some 220,000 compounds screened, about 16,000 (7.3%) were called active. Inconclusive results, whose numbers are uncertain, are shown with a selection of clear calls. The call rests on the fitted dose curve; in most records, active means well fitted inhibition curve with a large enough effect (not every such curve was filed as active); inconclusive means small, poorly fitted or top-dose-only effect, or another doubt; inactive means no such curve, though single readings can be large or run the other way. No potency is given beside an inconclusive call; the fits are too rough.
Potency means the concentration at half of the fitted maximal effect; tags describe the fitted curve by direction and shape.
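Wherever activity, negative = inhibition is given: plate controls were no enzyme wells and a reference inhibitor.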

The molecules below were run against Aldehyde dehydrogenase 1A1 (Homo sapiens) (UniProt P00352) (assay: qHTS Assay for Inhibitors of Aldehyde Dehydrogenase 1 (ALDH1A1)). Conditions: Purified ALDH1A1, NADH fluorescence, propionaldehyde substrate; series mostly up to 75.3 µM.
Sequence of UniProt P00352 (P00352 whole entry, looked up): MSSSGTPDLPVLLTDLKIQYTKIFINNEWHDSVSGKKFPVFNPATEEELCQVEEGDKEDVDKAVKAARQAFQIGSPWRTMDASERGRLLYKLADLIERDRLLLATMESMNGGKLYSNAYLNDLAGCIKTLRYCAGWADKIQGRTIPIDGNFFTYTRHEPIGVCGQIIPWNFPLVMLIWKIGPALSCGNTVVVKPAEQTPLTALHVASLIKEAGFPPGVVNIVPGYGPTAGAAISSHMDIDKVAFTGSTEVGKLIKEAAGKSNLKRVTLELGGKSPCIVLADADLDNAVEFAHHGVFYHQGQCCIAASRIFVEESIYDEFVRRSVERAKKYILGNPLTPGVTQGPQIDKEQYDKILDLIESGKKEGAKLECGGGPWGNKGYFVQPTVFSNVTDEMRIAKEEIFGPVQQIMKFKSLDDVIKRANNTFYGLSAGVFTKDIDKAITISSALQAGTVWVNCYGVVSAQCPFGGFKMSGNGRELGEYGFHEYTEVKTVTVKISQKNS
`O=C(CCCCn1c(=S)[nH]c2ccsc2c1=O)NCc1ccc2c(c1)OCO2` was tested, and the Potency was inconclusive [inhibitor, single point].
With `COc1cc(/C=C/C(=O)Oc2coc(CSc3ncccn3)cc2=O)cc(OC)c1OC` the Potency was inconclusive [inhibitor, partial curve].
`CCCCCn1c(N2CCN(Cc3ccccc3)CC2)nc2c1c(=O)[nH]c(=O)n2C` was tested, and the Potency was inconclusive [inhibitor, single point].
`Cc1[nH]c2ccccc2c1Cc1n[nH]c(=S)o1` was tested, and the Potency was inconclusive [inhibitor, partial curve].
In the case of `Cc1cccc(OCC(=O)Nc2cccc3nsnc23)c1`, the Potency is reported as inconclusive [inhibitor, single point].
With `O=c1c(-c2cccc(Cl)c2)nc2cncnc2n1Cc1ccccc1` the Potency was inconclusive [inhibitor, single point].
With `Cc1ccccc1-c1nnc(SCc2ccccc2F)o1` the Potency was “inactive”.
With `CC1(C)CC(=O)C(/C=N/c2ccccn2)=C(O)C1` the Potency was active: 14.1 µM.
For `CCOC(=O)/C(C#N)=C\c1cccnc1`, the Potency was “inactive”.
For `COc1cc(N2CCCC2)ccc1[N+](=O)[O-]`, the Potency was inconclusive [inhibitor, single point].
In the case of `Cc1ccc2c(c1)c1c(n2CC(O)CN2C(=O)CNC2=O)C(=O)CCC1` (stereo not given), the Potency is reported as inconclusive [inhibitor, partial curve].
`CN1CCN(c2ncc3nc(-c4cccs4)c(=O)n(-c4ccccc4)c3n2)CC1` was tested, and the Potency was inconclusive [inhibitor, single point].
In the case of `CCn1c(=O)c2cc(C(=O)N3CCCC3)sc2c2ccccc21`, the Potency is reported as inconclusive [inhibitor, full curve].
`COc1ccc(/C=C/c2nc3cc(-c4ccccc4)ccc3o2)cc1O` was tested, and the Potency was inconclusive [inhibitor, partial curve].
With `CCN(CC)S(=O)(=O)c1ccc(N2CCOCC2)c(NC(=O)Cc2ccccc2)c1` the Potency was active: 12.6 µM.
`CSc1ccc(S(=O)(=O)Nc2ccc3c4c(cccc24)CC3)cc1` was tested, and the Potency was inconclusive [inhibitor, single point].
`CCCCNC(=O)CCNC(=O)c1ccc(C(C)(C)C)cc1` was tested, and the Potency was “inactive”.
In the case of `CCCCN(CC)Cc1ccc(CNC(=S)Nc2cccc(F)c2)o1`, the Potency is reported as active: 14.1 µM.
`CC(=O)Oc1ccc2occ(C(=O)c3cccs3)c2c1` was tested, and the Potency was “inactive”.
`CCOC(=O)C1CCCN(C(=O)c2cn(CC(C)C)c(=O)c3cc(OC)c(OC)cc23)C1` (stereo not given) was tested, and the Potency was inconclusive [inhibitor, partial curve].
With `O=C1C(Nc2ccccc2)=CC(=O)c2ncccc21` the Potency was active: 15.8 µM.
For `O=C(CN1CCOCC1)Nc1ccc(NC(=O)CN2CCOCC2)c(Cl)c1`, the Potency was inconclusive [inhibitor, single point].
In the case of `CCCC(c1nnnn1C(C)(C)CC)N1CCN(C2CCCC2)CC1` (stereo not given), the Potency is reported as “inactive”.
For `COc1cccc(OC)c1OCCN(C)C`, the Potency was inconclusive [inhibitor, partial curve, poor fit].
For `COc1cccc(C(Nc2ccccn2)c2oc(CO)cc(=O)c2O)c1` (stereo not given), the Potency was inconclusive [inhibitor, single point].
In the case of `COc1ccc(OC)c(S(=O)(=O)N2CCN(c3c(C)cccc3C)CC2)c1`, the Potency is reported as active: 14.1 µM.
In the case of `COCCn1c(=O)c(CCc2ccccc2)nc2cnc(N3CCNCC3)nc21`, the Potency is reported as inconclusive [inhibitor, partial curve].
With `COc1ccc(CNC(=O)c2ccc(CS(=O)(=O)Cc3ccccc3F)o2)cc1` the Potency was inconclusive [inhibitor, partial curve].
With `CCCCCCCCNc1nc(Cl)nc(NCc2ccco2)n1` the Potency was “inactive”.
`Oc1ccc(C(=S)N2CCN(c3cccc(Cl)c3)CC2)cc1` was tested, and the Potency was active: 7.94 µM.
`CCCn1c(C)nc2c(NCCCCN3CCCC3)nc(C)nc21` was tested, and the Potency was “inactive”.
For `COCCCNC(=S)NC(=O)c1ccc([N+](=O)[O-])cc1`, the Potency was active: 20 µM.
In the case of `CN(C)c1ccc(C(=O)NC2CCCc3ccccc32)cc1` (stereo not given), the Potency is reported as inconclusive [inhibitor, single point].
`O=C(O/N=C1\CCS(=O)(=O)c2sccc21)c1c(F)cccc1F` was tested, and the Potency was inconclusive [inhibitor, partial curve].
With `CCCC(O)(CCN1CCCCC1)c1ccc(OCC)cc1` (stereo not given) the Potency was active: 0.891 µM.
`Cc1cc(-c2ccc(Cl)cc2)oc(=O)c1NC(=O)c1ccccc1` was tested, and the Potency was inconclusive [inhibitor, single point].
`COc1ccc(-c2n[nH]c(=S)n2N)c(OC)c1` was tested, and the Potency was active: 25.1 µM.
With `O=C(O)CCCN=C1NC2(CCCC2)Cc2ccccc21` the Potency was “inactive”.
`Clc1ccc2nc(C3CCN(Cc4nnnn4C4CCCCC4)CC3)[nH]c2c1` was tested, and the Potency was inconclusive [inhibitor, partial curve].
With `COc1cccc(C(=O)Nc2ccc(C)cc2)c1` the Potency was “inactive”.
In the case of `COc1cc(C(=O)N[C@@H](C)C(=O)NCc2ccco2)cc(OC)c1OC`, the Potency is reported as “inactive”.
For `Cc1ccc(S(=O)(=O)NC(=O)Nc2ccc(Cl)cn2)cc1`, the Potency was inconclusive [inhibitor, partial curve].
In the case of `Cc1[nH]c2ccccc2c1C(=O)C(=O)NCCC1=CCCCC1`, the Potency is reported as inconclusive [inhibitor, single point].
In the case of `CCOC(=O)N1CCN(c2ncnc3c2[nH]c2ccc(F)cc23)CC1`, the Potency is reported as “inactive”.
With `COc1cc(/C=C2\SC(=Nc3ccc(N4CCOCC4)cc3)N(C)C2=O)ccc1OC(C)C(=O)O` (stereo not given) the Potency was “inactive”.
With `COC(=O)NC(/C(C(=O)OC)=C(\C)NCc1ccccc1)c1cccc(C)c1` (stereo not given) the activity, negative = inhibition was inactive: 10.9% [at 13.5 µM].
In the case of `CC(C)(CO)NCC(O)Cn1cc(C=O)c2ccccc21` (stereo not given), the Potency is reported as “inactive”.
With `CCCc1cc(-c2n[nH]c(=S)n2Cc2ccccc2)cs1` the Potency was active: 7.94 µM.
`S=C(c1ccc(-c2ccc(Cl)c(Cl)c2)o1)N1CCOCC1` was tested, and the Potency was active: 8.91 µM.
`Cc1cc(C)n2cc(CSC3=NCCS3)nc2n1` was tested, and the Potency was inconclusive [inhibitor, partial curve].
